Laboratory results: PubChem BioAssay (NCATS)
Several values for one entry are separate records, joined by “and”; a condition that tells them apart may be missing. Equal entries are not always repeated. The inconclusive results got no clear call from the source; some entries with a clear call stand among them for comparison. For part of these data: Potencies beside an inconclusive call are fits to weak or partial responses and may not hold up. Activity calls are given as the source filed them. Unless noted, calls follow the shape of the dose curve; as a rule, active = well fitted curve in the direction sought with a large enough effect; inconclusive = small, poorly fitted or top-dose-only effect, or another doubt; inactive = no such curve, though single readings can be large; an effect the other way counts as inactive or inconclusive.

tested on: Zika virus NS2B-NS3 protease (linked construct); test: Primary screen NINDS Rhodamine qHTS for Zika virus inhibitors (AID 1347160); conditions: purified NS2B-NS3 protease, Rhodamine110 substrate fluorescence; series mostly up to 57.1 µM; activity change, negative = inhibition: at the top concentration; also: nearly all actives have a fitted effect of over 55% in size
Method in brief: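 Rhodamine110-peptide cleavage (1.5 µM substrate) by 25 nM linked NS2B-NS3 enzyme at pH 8.0 (Tris, Tween 20), after 15 min RT preincubation with compounds; 15-min fluorescence change normalized to controls and Hill-fitted.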
% is scaled to controls: 0 for no effect and ±100 for the full control effect; potency is read from the fitted curve at half-maximal effect; tags tell the direction and shape of the fitted curve.

| Structure (SMILES) | Potency | activity change, negative = inhibition |
| --- | --- | --- |
| C=C(C(=O)O)[C@@H]1CC=C2CCC[C@H](C)[C@@]2(C)C1 | inconclusive: 39.8 µM [inhibitor, single point] | – |
| CC(=O)O[C@]1(C(C)=O)CC[C@H]2[C@@H]3C[C@H](C)C4=CC(=O)C=C[C@]4(C)[C@@]3(F)[C@@H](O)C[C@@]21C | – | inactive: 9.9% |
| CC(C)c1cc2c(c(O)c1O)[C@@]13CCCC(C)(C)[C@@H]1[C@H](OC3=O)C2=O | inconclusive: 10 µM [inhibitor, single point] | – |
| Cc1cc(C)c2nc(-c3ccccn3)cc(C(=O)Nc3ccc(S(=O)(=O)Nc4onc(C)c4C)cc3)c2c1 | active: 2.24 µM | – |
| CC1=C(C)C(=O)OC(C(C)C2CCC3C4CC=C5CC(OC6OC(COC7OC(CO)C(O)C(O)C7O)C(O)C(O)C6O)CC(O)C5(C)C4CCC23C)C1 (stereo not drawn) | – | inactive: 21% [at 15.1 µM] |
| CC1(C)CC[C@]2(C(=O)O[C@@H]3O[C@H](CO)[C@@H](O)[C@H](O)[C@H]3O)CC[C@]3(C)C(=CCC4[C@@]5(C)C[C@@H](O)[C@H](O)[C@@](C)(CO)C5CC[C@]43C)C2C1 (stereo partly drawn) | inconclusive: 6.31 µM [inhibitor, partial curve] | – |

tested on: not listed separately; test: Primary qHTS for small molecule stabilizers of the endoplasmic reticulum resident proteome: Secreted ER Calcium Modulated Protein (SERCaMP) assay (AID 1508630); conditions: SH-SY5Y GLuc-SERCaMP (Gaussia luciferase released on ER calcium loss) secretion, thapsigargin, luminescence; activity change, negative = inhibition: at 38.4 µM (top of the series) unless noted
Method in brief: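 The SH-SY5Y reporter protocol was run at 3 concentrations up to 38.3 uM (primary) or 11 concentrations (follow-up): 16 h compound, 100 nM thapsigargin for 4 h, then extracellular luciferase luminescence.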

| Structure (SMILES) | Potency | activity change, negative = inhibition |
| --- | --- | --- |
| NC(=O)c1ncn([C@@H]2O[C@H](CO)[C@@H](O)[C@H]2O)n1 | inactive | – |
| COC(=O)CCCCC(CCSS/C(CCO)=C(\C)N(C=O)Cc1cnc(C)nc1N)SC(C)=O (stereo not drawn) | inconclusive: 35.5 µM [inhibitor, full curve] | – |
| O=c1[nH]c2cc(C(F)(F)F)c(N3CCOCC3)cc2n(CP(=O)(O)O)c1=O | – | inconclusive: -31.4% [inhibitor] |
| Nc1ccc(/C=C/c2ccc(N)cc2S(=O)(=O)O)c(S(=O)(=O)O)c1 | inconclusive: 0.316 µM [inhibitor, full curve] | – |

molecular target: Cytochrome P450 2D6 (Homo sapiens) (UniProt P10635); test: Cytochrome P450 family 2 subfamily D member 6 (CYP2D6) small molecule antagonists: luciferase biochemical (cell-free) qHTS assay (AID 1645840; active = well fitted curve in the direction sought with a large enough effect in the repeat runs; inconclusive = weak or mixed curves; inactive = no such curve, though single readings can be large; an effect the other way counts as inactive or inconclusive; also: nearly all actives have a fitted effect of over 55% in size); conditions: P450-Glo CYP2D6 enzyme, luciferin luminescence, 1 h; series mostly up to 57.4 µM; activity change, negative = inhibition: at the top concentration
Sequence of UniProt P10635 (P10635 whole entry, looked up): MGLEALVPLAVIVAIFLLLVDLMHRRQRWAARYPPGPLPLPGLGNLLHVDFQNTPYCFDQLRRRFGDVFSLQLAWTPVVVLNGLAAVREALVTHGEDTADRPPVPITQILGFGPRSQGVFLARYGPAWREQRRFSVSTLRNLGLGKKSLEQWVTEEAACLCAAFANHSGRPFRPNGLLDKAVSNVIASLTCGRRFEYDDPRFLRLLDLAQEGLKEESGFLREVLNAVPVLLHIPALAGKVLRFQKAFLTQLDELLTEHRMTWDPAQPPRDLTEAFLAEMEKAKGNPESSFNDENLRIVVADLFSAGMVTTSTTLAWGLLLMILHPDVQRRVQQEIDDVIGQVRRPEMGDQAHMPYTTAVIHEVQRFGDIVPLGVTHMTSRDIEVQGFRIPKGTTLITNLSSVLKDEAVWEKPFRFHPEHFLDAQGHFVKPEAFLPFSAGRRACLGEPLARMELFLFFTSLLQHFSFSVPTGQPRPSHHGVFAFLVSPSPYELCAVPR
Method in brief: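 P450-Glo CYP2D6 system: proluciferin substrate converted by enzyme to luciferin, read by luminescence proportional to activity. Enzyme-substrate mix with compound 10 min at room temperature, then NADPH regeneration 1 h before detection reagent.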

| Structure (SMILES) | activity change, negative = inhibition | Potency |
| --- | --- | --- |
| COC(=O)CCCCC(CCSS/C(CCO)=C(\C)N(C=O)Cc1cnc(C)nc1N)SC(C)=O (stereo not drawn) | inactive: 6.83% | – |
| Cc1cc(C)c2nc(-c3ccccn3)cc(C(=O)Nc3ccc(S(=O)(=O)Nc4onc(C)c4C)cc3)c2c1 | – | inconclusive: 37.9 µM [inhibitor, single point] |
| O=c1[nH]c2cc(C(F)(F)F)c(N3CCOCC3)cc2n(CP(=O)(O)O)c1=O | inactive: 1.69% | – |
| CC(NCc1ccc(OCc2cccc(F)c2)cc1)C(N)=O (stereo not drawn) | – | inconclusive: 16.9 µM [inhibitor, partial curve] |
| CCn1nnnc1NCc1ccc(C(C)C)cc1 | inactive: -13.9% | – |

molecular target: Cytochrome P450 2C9 (Homo sapiens) (UniProt P11712); test: Cytochrome P450 family 2 subfamily C member 9 (CYP2C9) small molecule antagonists: luciferase biochemical (cell-free) qHTS assay (AID 1645842; active = well fitted curve in the direction sought with a large enough effect in the repeat runs; inconclusive = weak or mixed curves; inactive = no such curve, though single readings can be large; an effect the other way counts as inactive or inconclusive; also: nearly all actives have a fitted effect of over 55% in size); conditions: P450-Glo CYP2C9 enzyme assay, luciferin luminescence; series mostly up to 57.4 µM; activity change, negative = inhibition: at the top concentration
Sequence of UniProt P11712 (P11712 whole entry, looked up): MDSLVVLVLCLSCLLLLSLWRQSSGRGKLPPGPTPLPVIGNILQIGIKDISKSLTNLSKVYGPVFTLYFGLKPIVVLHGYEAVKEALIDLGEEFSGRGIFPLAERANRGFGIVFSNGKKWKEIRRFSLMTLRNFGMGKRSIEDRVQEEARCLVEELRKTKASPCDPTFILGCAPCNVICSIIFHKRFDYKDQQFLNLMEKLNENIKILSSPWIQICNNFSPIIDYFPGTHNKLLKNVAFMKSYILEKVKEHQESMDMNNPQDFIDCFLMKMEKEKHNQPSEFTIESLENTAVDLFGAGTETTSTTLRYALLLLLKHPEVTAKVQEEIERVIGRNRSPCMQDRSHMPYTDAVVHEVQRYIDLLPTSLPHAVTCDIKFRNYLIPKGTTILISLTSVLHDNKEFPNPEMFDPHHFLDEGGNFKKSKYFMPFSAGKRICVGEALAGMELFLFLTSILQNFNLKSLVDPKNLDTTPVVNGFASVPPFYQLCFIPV
Method in brief: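 P450-Glo CYP2C9 system: proluciferin substrate with enzyme in mix containing 0.4% BSA, 10 min at room temperature, then NADPH regeneration solution added and incubated 1 h at 37C. Detection reagent stopped reaction; luminescence read after 20 min as RLU.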

| Structure (SMILES) | activity change, negative = inhibition | Potency |
| --- | --- | --- |
| CN1CCc2nc(C(=O)N[C@@H]3C[C@@H](C(=O)N(C)C)CC[C@@H]3NC(=O)C(=O)Nc3ccc(Cl)cn3)sc2C1 | inactive: -27.7% | – |
| O=C(OCCOCCO)c1ccccc1Nc1cccc(C(F)(F)F)c1 | – | active: 17.4 µM |
| O=c1[nH]c2cc(C(F)(F)F)c(N3CCOCC3)cc2n(CP(=O)(O)O)c1=O | inactive: 4.13% | – |
| CCn1nnnc1NCc1ccc(C(C)C)cc1 | – | active: 7.56 µM |

tested on: not listed separately; test: Primary qHTS for inhibitors of nuclear receptor binding SET domain protein 2 (NSD2) in an isogenic RCH-ACV NSD2 p.E1099K mutant (9B) (AID 1645876); conditions: RCH-ACV (leukaemia line) NSD2 E1099K (9B) viability, CellTiter-Glo, 72 h; activity change, negative = viability loss: at 44.9 µM (top of the series) unless noted; series mostly up to 44.9 µM; also: nearly all actives have a fitted effect of over 70% in size

| Structure (SMILES) | Potency | activity change, negative = viability loss |
| --- | --- | --- |
| Nc1ccc(S(=O)(=O)Nc2nccs2)cc1 | inconclusive: 29.9 µM [inhibitor, single point] | – |
| NC(=O)c1ncn([C@@H]2O[C@H](CO)[C@@H](O)[C@H]2O)n1 | inconclusive: 33.5 µM [inhibitor, single point] and inconclusive: 23.5 µM [inhibitor, single point] | – |
| COC(=O)CCCCC(CCSS/C(CCO)=C(\C)N(C=O)Cc1cnc(C)nc1N)SC(C)=O (stereo not drawn) | – | inactive: -5.89% |
| OC[C@H]1O[C@@H](Oc2cc(O)cc(-c3cc4ccc(O[C@@H]5O[C@H](CO)[C@@H](O)[C@H](O)[C@H]5O)cc4o3)c2)[C@H](O)[C@@H](O)[C@@H]1O | inconclusive: 8.93 µM [inhibitor, single point] | – |
| CC(=O)O[C@]1(C(C)=O)CC[C@H]2[C@@H]3C[C@H](C)C4=CC(=O)C=C[C@]4(C)[C@@]3(F)[C@@H](O)C[C@@]21C | inconclusive: 0.129 µM [inhibitor, partial curve] | – |
| O=C(OCCOCCO)c1ccccc1Nc1cccc(C(F)(F)F)c1 | inconclusive: 16.8 µM [inhibitor, partial curve] and inconclusive: 16.3 µM [inhibitor, partial curve] | – |
| Cc1ccc(COC(=O)N2CC[C@@H](CNc3ncccn3)[C@@H](F)C2)cc1 | inconclusive: 23 µM [inhibitor, partial curve, poor fit] | – |
| CC(=O)N[C@H]1[C@H](O[C@H]2CC[C@@]3(C)C(CC[C@]4(C)C3CC=C3C5CC(C)(C)CC[C@]5(C(=O)O)[C@H](O[C@@H]5O[C@H](CO)[C@@H](O)[C@H](O)[C@H]5O)C[C@]34C)C2(C)C)O[C@H](CO[C@@H]2OC[C@H](O)[C@H](O)[C@H]2O[C@@H]2OC[C@@H](O)[C@H](O)[C@H]2O)[C@@H](O)[C@@H]1O (stereo partly drawn) | – | inactive: -9.03% [at 9.23 µM] |
| CC(C)c1cc2c(c(O)c1O)[C@@]13CCCC(C)(C)[C@@H]1[C@H](OC3=O)C2=O | inconclusive: 10.1 µM [inhibitor, partial curve, poor fit] | – |
| Cc1cc(C)c2nc(-c3ccccn3)cc(C(=O)Nc3ccc(S(=O)(=O)Nc4onc(C)c4C)cc3)c2c1 | inconclusive: 18.3 µM [inhibitor, single point] | – |
| C[C@@H]1O[C@@H](O[C@H]2[C@H](OC(=O)[C@]34CCC(C)(C)C[C@H]3C3=CCC5[C@@]6(C)CC[C@H](O[C@@H]7O[C@H](CO[C@@H]8OC[C@H](O)[C@H](O)[C@H]8O)[C@@H](O)[C@H](O)[C@H]7O)C(C)(C)C6CC[C@@]5(C)[C@]3(C)C[C@H]4O)OC[C@@H](O)[C@@H]2O)[C@H](O)[C@H](O[C@@H]2OC[C@](O)(CO)[C@H]2O)[C@H]1O[C@@H]1OC[C@H](O)[C@H](O[C@@H]2OC[C@@H](O)[C@H](O)[C@H]2O)[C@H]1O (stereo partly drawn) | inconclusive: 2.44 µM [inhibitor, partial curve] | – |
| CC(C)c1ccc2c(c1)C(=O)CC1[C@@](C)(C(=O)O)CCC[C@]21C (stereo partly drawn) | – | inactive: -13.8% |
| CC1=C(C)C(=O)OC(C(C)C2CCC3C4CC=C5CC(OC6OC(COC7OC(CO)C(O)C(O)C7O)C(O)C(O)C6O)CC(O)C5(C)C4CCC23C)C1 (stereo not drawn) | – | inactive: -13% [at 17.3 µM] |
| O=c1[nH]c2cc(C(F)(F)F)c(N3CCOCC3)cc2n(CP(=O)(O)O)c1=O | inconclusive: 29.9 µM [inhibitor, single point] | – |
